This note sets out measurements from the antibiotic and cytotoxicity screens of Wong et al. (2023).

The list shows a part of the results.

For this experiment, the system named is HSkMC (human skeletal muscle cells). As to the kind of experiment: cytotoxicity call (relative viability < 0.9). To be noted: 10 µM.
With `C[C@H](CO)N1C[C@H](C)[C@@H](CN(C)Cc2ccncc2)Oc2c(NC(=O)Nc3ccc(C(F)(F)F)cc3)cccc2C1=O`, the cytotoxicity call was “inactive”.

As for `Cc1noc(C)c1NC(=O)Nc1ccc2c(c1)C(=O)N([C@@H](C)CO)C[C@H](C)[C@H](CN(C)S(=O)(=O)c1cn(C)cn1)O2`, the cytotoxicity call was “inactive”.

For `NC(CC(=O)O)C(=O)O` (stereo not given), the cytotoxicity call was “inactive”.

In the case of `Cc1cc(C(=O)Nc2cccc3c2O[C@@H](CN(C)Cc2ccncc2)[C@H](C)CN([C@@H](C)CO)C3=O)n(C)n1`, the cytotoxicity call is “inactive”.

As to `Cc1ccc(S(=O)(=O)Nc2ccc3c(c2)C(=O)N([C@@H](C)CO)C[C@@H](C)[C@@H](CN(C)Cc2ccc(C(=O)O)cc2)OCCCC[C@@H](C)O3)cc1`, the cytotoxicity call was “inactive”.

`N[C@@H](Cc1ccc2nonc2c1)C(=O)O`: the cytotoxicity call is “inactive”.

Consider `CC(C)NC(=O)N(C)C[C@H]1Oc2c(NC(=O)C3CCOCC3)cccc2C(=O)N([C@H](C)CO)C[C@H]1C`, for which the cytotoxicity call was “inactive”.

`C[C@@H]1CCCCO[C@H](CN(C)C(=O)Nc2ccc(F)cc2)[C@H](C)CN([C@@H](C)CO)C(=O)c2cc(NC(=O)CCCN(C)C)ccc2O1`: the cytotoxicity call is “inactive”.

As to `COc1ccc(NC(=O)Nc2ccc3c(c2)C(=O)N([C@H](C)CO)C[C@H](C)[C@H](CN(C)S(=O)(=O)c2cn(C)cn2)O3)cc1`, the cytotoxicity call was “inactive”.

For `Cc1ccc(S(=O)(=O)N(C)C[C@H]2Oc3ccc(NC(=O)CCN4CCOCC4)cc3CC(=O)N([C@H](C)CO)C[C@H]2C)cc1`, the cytotoxicity call was “inactive”.

On to `C[C@H]1CN([C@@H](C)CO)C(=O)Cc2cc(NC(=O)Nc3ccc(F)cc3)ccc2O[C@H]1CN(C)C(=O)Nc1cccc2ccccc12`, for which the cytotoxicity call was “inactive”.

In the case of `O=C(CCc1ccc(O)cc1)c1c(O)cc(O)cc1O`, the cytotoxicity call was “inactive”.

Consider `CC(C)NC(=O)Nc1ccc2c(c1)C(=O)N([C@H](C)CO)C[C@@H](C)[C@H](CN(C)Cc1ccc(Cl)c(Cl)c1)OCCCC[C@H](C)O2`, for which the cytotoxicity call was “inactive”.

Consider `C[C@@H]1CN([C@H](C)CO)C(=O)c2cc(NS(=O)(=O)c3ccccc3)ccc2O[C@@H](C)CCCCO[C@H]1CN(C)Cc1ccc(C(F)(F)F)cc1`, for which the cytotoxicity call was “inactive”.

For `C[C@@H]1CN([C@H](C)CO)C(=O)c2cc(NC(=O)CCC(F)(F)F)ccc2O[C@@H]1CN(C)Cc1ccc(C(=O)Nc2ccccc2N)cc1`, the cytotoxicity call is “inactive”.

Take `O=C(C[C@@H]1C[C@@H]2c3cc(NS(=O)(=O)c4ccc(F)cc4)ccc3O[C@@H]2[C@H](CO)O1)NC1CCCCC1`: the cytotoxicity call is “inactive”.

As for `COCC#Cc1ccc2c(c1)O[C@H](CN(C)C(=O)Nc1ccccc1F)[C@@H](C)CN([C@@H](C)CO)S2(=O)=O`, the cytotoxicity call is “inactive”.

Consider `COc1ccc(CN(C)C[C@H]2OCCCC[C@H](C)Oc3ccc(NC(=O)Nc4ccc5c(c4)OCO5)cc3C(=O)N([C@H](C)CO)C[C@@H]2C)cc1`, for which the cytotoxicity call is “inactive”.

In the case of `C[C@H]1CN([C@@H](C)CO)C(=O)c2cccc(NC(=O)c3nc4ccccc4s3)c2O[C@@H]1CN(C)Cc1ccc(C(F)(F)F)cc1`, the cytotoxicity call is “active”.

With `N#Cc1ccc(Oc2ccccn2)cc1`, the cytotoxicity call is “inactive”.

`COCC(=O)Nc1ccc2c(c1)C(=O)N(C)[C@H]1CC[C@H](CC(=O)NCc3ccccc3Cl)O[C@H]1CO2`: the cytotoxicity call was “inactive”.

As to `CO[C@@H]1CN(C)C(=O)c2cc(NS(=O)(=O)CC(F)(F)F)ccc2OC[C@@H](C)N(C(=O)NC(C)C)C[C@@H]1C`, the cytotoxicity call was “inactive”.

Turning to `C[C@@H]1CN([C@@H](C)CO)C(=O)c2cc(NC(=O)C3CCCCC3)ccc2O[C@@H](C)CCCCO[C@@H]1CN(C)C(=O)c1ccncc1`, the cytotoxicity call was “inactive”.

On to `COCC(=O)N(C)C[C@H]1Oc2cc(-c3ccc(OC)cc3)ccc2S(=O)(=O)N([C@@H](C)CO)C[C@@H]1C`, for which the cytotoxicity call is “inactive”.

As for `C[C@H](CO)N1C[C@H](C)[C@@H](CN(C)Cc2ccc(C(=O)Nc3ccccc3N)cc2)Oc2ccc(NS(C)(=O)=O)cc2CC1=O`, the cytotoxicity call is “inactive”.

For `C[C@@H]1CN([C@H](C)CO)C(=O)c2cc(NC(=O)CCCN(C)C)ccc2O[C@@H]1CN(C)Cc1ccncc1`, the cytotoxicity call is “inactive”.

Take `C[C@H](CO)N1C[C@H](C)[C@@H](CN(C)S(=O)(=O)c2ccc(F)cc2)Oc2c(NS(C)(=O)=O)cccc2C1=O`: the cytotoxicity call is “inactive”.

In the case of `C[C@@H]1CN([C@H](C)CO)C(=O)c2cccc(NS(=O)(=O)c3cn(C)cn3)c2O[C@H]1CN(C)S(=O)(=O)c1cccs1`, the cytotoxicity call was “inactive”.

With `Cc1noc(C)c1NC(=O)Nc1cccc2c1O[C@H](CN(C)Cc1ccc(Cl)c(Cl)c1)[C@H](C)CN([C@@H](C)CO)C2=O`, the cytotoxicity call was “inactive”.

For `C[C@H]1CN([C@@H](C)CO)C(=O)Cc2cc(NC(=O)CCN3CCOCC3)ccc2O[C@@H]1CN(C)S(=O)(=O)c1ccc(F)cc1`, the cytotoxicity call was “inactive”.
